The values below come from the antibiotic and cytotoxicity screens of Wong et al. (2023).

The subject of one assay is HSkMC. Put plainly: cytotoxicity call (relative viability < 0.9). The settings on record: 10 µM.
The next assay has as its system HepG2. Put plainly: cytotoxicity call (relative viability < 0.9). The settings on record: 10 µM.
Another assay has as its system S. aureus RN4220. Put plainly: growth inhibition call (relative growth <= 0.2). To be noted: 50 µM.

Molecules are shown by their SMILES. Some of the results follow.

As for `CN(C)CC(=O)N[C@@H]1CC[C@@H](CC(=O)O)O[C@H]1CO`, the cytotoxicity call in the assay on HSkMC and in the assay on HepG2 was “inactive” each time. Moreover, the growth inhibition call with S. aureus RN4220 is “inactive”.
Consider `Cc1noc(C)c1NC(=O)N(C)C[C@@H]1Oc2ccc(NC(=O)Nc3cccc4ccccc34)cc2C(=O)N([C@@H](C)CO)C[C@H]1C`, for which the cytotoxicity call with HSkMC and with HepG2 was “inactive” throughout. Further, the growth inhibition call with S. aureus RN4220 is “inactive”.
`CN(C)CC(=O)N[C@H]1CC[C@H](CC(=O)NCCN2CCCCC2)O[C@H]1CO`: the cytotoxicity call with HSkMC and with HepG2 was “inactive” each time. Also, the growth inhibition call in the assay with S. aureus RN4220 was “inactive”.
As for `CCNC(=O)[C@@H]1[C@@H](CO)[C@@H]2Cn3c(ccc(-c4ccc(OC)cc4)c3=O)[C@H]1N2S(C)(=O)=O`, the cytotoxicity call in the assay with HSkMC and in the assay with HepG2 was “inactive” in each case. In addition, the growth inhibition call in the assay with S. aureus RN4220 is “inactive”.
For `COc1ccc(S(=O)(=O)N(C)C[C@@H]2OCCCC[C@@H](C)Oc3ccc(NS(=O)(=O)c4ccc(Cl)cc4)cc3C(=O)N([C@@H](C)CO)C[C@@H]2C)cc1`, the cytotoxicity call with HSkMC and in the assay with HepG2 was “inactive” in each case. In addition, the growth inhibition call in the assay on S. aureus RN4220 was “inactive”.
`CN1C(=O)c2cc(NC(=O)c3ccc(F)cc3)ccc2OC[C@H]2O[C@H](CC(=O)N3CCOCC3)CC[C@@H]21`: the cytotoxicity call with HSkMC and in the assay on HepG2 was “inactive” each time. For the same molecule, the growth inhibition call with S. aureus RN4220 is “inactive”.
Turning to `Cc1cncc2cccc(S(=O)(=O)N[C@H]3CN[C@@H](COC(=O)NCCOCCOCCN)C3)c12`, the cytotoxicity call with HSkMC and in the assay on HepG2 was “inactive” in each case. Moreover, the growth inhibition call in the assay with S. aureus RN4220 was “inactive”.
`Nc1ncnc2c1ncn2CCO`: the cytotoxicity call in the assay on HSkMC and in the assay with HepG2 was “inactive” in each case. Besides, the growth inhibition call with S. aureus RN4220 was “inactive”.
As for `Cc1nn(C)cc1NC(=O)C[C@@H]1CC[C@H]2[C@H](COc3ccc(NC(=O)C4CCOCC4)cc3C(=O)N2C)O1`, the cytotoxicity call in the assay on HSkMC and in the assay on HepG2 was “inactive” throughout. In addition, the growth inhibition call in the assay with S. aureus RN4220 was “inactive”.
On to `Cc1noc(C)c1S(=O)(=O)N(C)C[C@@H]1Oc2ccc(NC(=O)NC3CCCCC3)cc2CC(=O)N([C@H](C)CO)C[C@@H]1C`, for which the cytotoxicity call in the assay on HSkMC and in the assay on HepG2 was “inactive” each time. For the same molecule, the growth inhibition call with S. aureus RN4220 was “inactive”.
As to `C[C@@H]1CCCCO[C@H](CN(C)Cc2ccc(Cl)c(Cl)c2)[C@H](C)CN([C@@H](C)CO)C(=O)c2cc(NS(=O)(=O)c3ccc(Cl)cc3)ccc2O1`, in the assay with HSkMC, the cytotoxicity call was “inactive”. The cytotoxicity call with HepG2 is “active”. Further, the growth inhibition call with S. aureus RN4220 is “inactive”.
Turning to `COc1ccc2c3c([nH]c2c1)[C@@H](CO)N(CC1CCOCC1)C[C@]13CCN(CC1)C(=O)C1CCOCC1`, the cytotoxicity call in the assay on HSkMC and in the assay on HepG2 was “inactive” throughout. Besides, the growth inhibition call in the assay on S. aureus RN4220 was “inactive”.
As to `C[C@@H]1CN([C@H](C)CO)C(=O)c2cc(NS(=O)(=O)c3ccccc3)ccc2O[C@@H](C)CCCCO[C@H]1CN(C)C(=O)NC1CCCCC1`, the cytotoxicity call in the assay with HSkMC and with HepG2 was “inactive” throughout. In addition, the growth inhibition call in the assay with S. aureus RN4220 is “inactive”.
`CCCCc1oc2ccc(NS(C)(=O)=O)cc2c1C(=O)c1ccc(OCCCN(CCCC)CCCC)cc1.Cl`: the cytotoxicity call in the assay with HSkMC and in the assay with HepG2 was “active” throughout. The growth inhibition call with S. aureus RN4220 is “inactive”.
In the case of `O=C1O[C@H](c2ccccc2)[C@H](c2ccccc2)N2[C@H]1[C@@H](C(=O)O)[C@]1(C(=O)Nc3ccc(C#CC4=CCCCC4)cc31)[C@H]2c1ccccc1OCCO`, in the assay with HSkMC, the cytotoxicity call is “inactive”. In addition, the cytotoxicity call in the assay with HepG2 is “active”. Also, the growth inhibition call in the assay with S. aureus RN4220 was “active”.
`CN(C)CCCCCCNC(=O)[C@@H]1C[C@@H]2C(=O)N[C@@H](CCCC[N+](C)(C)C)C(=O)N2[C@@H]1c1ccc(O)cc1`: the cytotoxicity call in the assay with HSkMC and in the assay on HepG2 was “inactive” throughout. Besides, in the assay with S. aureus RN4220, the growth inhibition call was “inactive”.
In the case of `C[C@@H]1CN([C@H](C)CO)C(=O)Cc2cc(NC(=O)Cc3cn(C)c4ccccc34)ccc2O[C@H]1CN(C)S(C)(=O)=O`, the cytotoxicity call in the assay on HSkMC and in the assay on HepG2 was “inactive” in each case. In addition, the growth inhibition call with S. aureus RN4220 is “inactive”.
In the case of `CC(C)NC(=O)N1CC[C@@H]2N(S(C)(=O)=O)CC[C@@]2(C(=O)N2CCOCC2)CC1`, the cytotoxicity call with HSkMC and in the assay with HepG2 was “inactive” throughout. Moreover, the growth inhibition call in the assay on S. aureus RN4220 is “inactive”.
As to `COc1ccc(N)cn1`, the cytotoxicity call in the assay on HSkMC and in the assay on HepG2 was “inactive” throughout. Also, the growth inhibition call with S. aureus RN4220 is “inactive”.
Take `CCNC(=O)C[C@H]1CC[C@H]2[C@@H](COc3ccc(NS(=O)(=O)c4ccccc4C)cc3C(=O)N2C)O1`: the cytotoxicity call in the assay on HSkMC and with HepG2 was “inactive” each time. In addition, the growth inhibition call in the assay on S. aureus RN4220 is “inactive”.
As for `O=C(CN1CCOCC1)N[C@@H]1CC[C@H](CCNC(=O)C2CCC2)O[C@@H]1CO`, the cytotoxicity call in the assay on HSkMC and in the assay on HepG2 was “inactive” throughout. The growth inhibition call in the assay on S. aureus RN4220 is “inactive”.
As to `C[C@@H]1CN([C@@H](C)CO)C(=O)Cc2cc(NC(=O)Nc3ccccc3)ccc2O[C@H]1CN(C)S(C)(=O)=O`, the cytotoxicity call with HSkMC and in the assay with HepG2 was “inactive” each time. Further, the growth inhibition call with S. aureus RN4220 is “inactive”.
Turning to `C[C@@H]1CN([C@H](C)CO)C(=O)c2cccc(NC(=O)Nc3ccccc3)c2O[C@H]1CN(C)Cc1ccc(Oc2ccccc2)cc1`, the cytotoxicity call in the assay with HSkMC and with HepG2 was “inactive” throughout. Also, the growth inhibition call in the assay on S. aureus RN4220 was “inactive”.
Turning to `C[C@H]1CN([C@@H](C)CO)C(=O)Cc2cc(NC(=O)Cn3cnnn3)ccc2O[C@H]1CN(C)Cc1ccncc1`, the cytotoxicity call in the assay with HSkMC and with HepG2 was “inactive” in each case. For the same molecule, the growth inhibition call in the assay on S. aureus RN4220 was “inactive”.
Consider `COc1ccccc1CNC(=O)C[C@H]1C[C@H]2c3cc(NC(=O)Nc4ccc(C(F)(F)F)cc4)ccc3O[C@H]2[C@@H](CO)O1`, for which the cytotoxicity call in the assay on HSkMC and in the assay on HepG2 was “inactive” throughout. The growth inhibition call in the assay on S. aureus RN4220 is “inactive”.
For `C/C=C/C(=O)c1cc(Cl)ccc1O`, the cytotoxicity call in the assay with HSkMC and with HepG2 was “inactive” each time. The growth inhibition call with S. aureus RN4220 was “inactive”.
On to `COCC(=O)Nc1ccc2c(c1)OC[C@H](C)N(C(=O)Cc1ccccn1)C[C@@H](C)[C@H](OC)CN(C)C2=O`, for which the cytotoxicity call in the assay with HSkMC and in the assay on HepG2 was “inactive” throughout. The growth inhibition call in the assay with S. aureus RN4220 is “inactive”.
With `COc1ccc(NC(=O)Nc2ccc3c(c2)C(=O)N([C@H](C)CO)C[C@H](C)[C@H](CN(C)C(=O)NC2CCCCC2)OCCCC[C@@H](C)O3)cc1`, the cytotoxicity call in the assay on HSkMC (human skeletal muscle cells) and in the assay on HepG2 was “inactive” each time. In addition, the growth inhibition call in the assay with S. aureus RN4220 is “inactive”.
Consider `C[C@@H]1CCCCO[C@@H](CN(C)C(=O)NC2CCCCC2)[C@H](C)CN([C@H](C)CO)C(=O)c2cc(NS(=O)(=O)c3cccs3)ccc2O1`, for which the cytotoxicity call in the assay with HSkMC and with HepG2 was “inactive” each time. For the same molecule, in the assay with S. aureus RN4220, the growth inhibition call is “inactive”.
On to `Cc1c(C(=O)O)sc2[nH]cnc(=O)c12`, for which the cytotoxicity call in the assay with HSkMC and in the assay with HepG2 was “inactive” in each case. For the same molecule, the growth inhibition call in the assay on S. aureus RN4220 is “inactive”.
On to `C[C@@H]1CN([C@@H](C)CO)C(=O)Cc2cc(NC(=O)Nc3cccc4ccccc34)ccc2O[C@@H]1CN(C)Cc1ccc(Oc2ccccc2)cc1`, for which the cytotoxicity call with HSkMC and with HepG2 was “inactive” in each case. Further, in the assay with S. aureus RN4220, the growth inhibition call was “inactive”.
